Source: the supplement of paper PMC8728848
The other results are listed elsewhere or left out.

Experiments:
Test in all cases: glycan array binding signal (z-score within array); higher = stronger binding
Conditions in all cases: glycan notation: IUPAC condensed, linker removed
Gal(a1-2)Gal = molecular target: Gal(a1-2)Gal
In short: (§1)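 The binding signal is a Z-score computed within each array. Data were drawn from 3228 arrays in the Consortium for Functional Glycomics database, restricted to those with a known protein sequence. Scores were averaged over arrays of the same protein sequence at different concentrations or buffers, and over linkers, and negative values can be taken as non-binding.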

Gal(a1-3)Gal = molecular target: Gal(a1-3)Gal
In short: as §1

Gal(a1-3)Gal(b1-3)GlcNAc = molecular target: Gal(a1-3)Gal(b1-3)GlcNAc
In short: as §1

Gal(a1-3)Gal(b1-4)Glc = molecular target: Gal(a1-3)Gal(b1-4)Glc
In short: as §1

Gal(a1-3)Gal(b1-4)GlcNAc = molecular target: Gal(a1-3)Gal(b1-4)GlcNAc
In short: as §1

[1] = molecular target: Gal(a1-3)Gal(b1-4)[Fuc(a1-3)]GlcNAc
In short: as §1

[2] = molecular target: Gal(a1-3)Gal(b1-4)[Fuc(a1-3)]GlcNAc(b1-2)Man(a1-3)[Gal(a1-3)Gal(b1-4)[Fuc(a1-3)]GlcNAc(b1-2)Man(a1-6)]Man(b1-4)GlcNAc(b1-4)GlcNAc
In short: as §1

Gal(a1-3)GalNAc = molecular target: Gal(a1-3)GalNAc
In short: as §1

[3] = molecular target: Gal(a1-3)[Gal(a1-4)]Gal(b1-4)GlcNAc
In short: as §1

Gal(a1-4)Gal(b1-4)Glc = molecular target: Gal(a1-4)Gal(b1-4)Glc
In short: as §1

Gal(a1-4)Gal(b1-4)GlcNAc = molecular target: Gal(a1-4)Gal(b1-4)GlcNAc
In short: as §1

[4] = molecular target: Gal(a1-4)Gal(b1-4)GlcNAc(b1-3)Gal(b1-4)Glc
In short: as §1

Gal(a1-4)GlcNAc = molecular target: Gal(a1-4)GlcNAc
In short: as §1

Gal(a1-6)Glc = molecular target: Gal(a1-6)Glc
In short: as §1

Gal(b1-2)Gal = molecular target: Gal(b1-2)Gal
In short: as §1

Gal(b1-3)Gal = molecular target: Gal(b1-3)Gal
In short: as §1

Gal(b1-3)Gal(b1-4)GlcNAc = molecular target: Gal(b1-3)Gal(b1-4)GlcNAc
In short: as §1

[5] = molecular target: Gal(b1-3)Gal(b1-4)GlcNAc(b1-2)Man(a1-3)[Gal(b1-3)Gal(b1-4)GlcNAc(b1-2)Man(a1-6)]Man(b1-4)GlcNAc(b1-4)GlcNAc
In short: as §1

Gal(b1-3)GalNAc = molecular target: Gal(b1-3)GalNAc
In short: as §1

[6] = molecular target: Gal(b1-3)GalNAc(a1-3)[Fuc(a1-2)]Gal(b1-4)Glc
In short: as §1

[7] = molecular target: Gal(b1-3)GalNAc(a1-3)[Fuc(a1-2)]Gal(b1-4)GlcNAc
In short: as §1

[8] = molecular target: Gal(b1-3)GalNAc(b1-3)Gal(a1-4)Gal(b1-4)Glc
In short: as §1

[9] = molecular target: Gal(b1-3)GalNAc(b1-4)Gal(b1-4)Glc
In short: as §1

[10] = molecular target: Gal(b1-3)GalNAc(b1-4)[Neu5Ac(a2-3)]Gal(b1-4)Glc
In short: as §1

Gal(b1-3)GlcNAc = molecular target: Gal(b1-3)GlcNAc
In short: as §1

[11] = molecular target: Gal(b1-3)GlcNAc(b1-2)Man(a1-3)[Gal(b1-3)GlcNAc(b1-2)Man(a1-6)]Man(b1-4)GlcNAc(b1-4)GlcNAc
In short: as §1

[12] = molecular target: Gal(b1-3)GlcNAc(b1-2)Man(a1-3)[Gal(b1-3)GlcNAc(b1-2)Man(a1-6)]Man(b1-4)GlcNAc(b1-4)[Fuc(a1-6)]GlcNAc
In short: as §1

[13] = molecular target: Gal(b1-3)GlcNAc(b1-3)Gal(b1-3)GlcNAc
In short: as §1

[14] = molecular target: Gal(b1-3)GlcNAc(b1-3)Gal(b1-4)Glc
In short: as §1

[15] = molecular target: Gal(b1-3)GlcNAc(b1-3)Gal(b1-4)GlcNAc
In short: as §1

[16] = molecular target: Gal(b1-3)[Fuc(a1-4)]GlcNAc
In short: as §1

[17] = molecular target: Gal(b1-3)[Fuc(a1-4)]GlcNAc(b1-2)Man(a1-3)[Gal(b1-3)[Fuc(a1-4)]GlcNAc(b1-2)Man(a1-6)]Man(b1-4)GlcNAc(b1-4)GlcNAc
In short: as §1

[18] = molecular target: Gal(b1-3)[Fuc(a1-4)]GlcNAc(b1-2)Man(a1-3)[Gal(b1-3)[Fuc(a1-4)]GlcNAc(b1-2)Man(a1-6)]Man(b1-4)GlcNAc(b1-4)[Fuc(a1-6)]GlcNAc
In short: as §1

[19] = molecular target: Gal(b1-3)[Fuc(a1-4)]GlcNAc(b1-3)Gal(b1-3)[Fuc(a1-4)]GlcNAc
In short: as §1

[20] = molecular target: Gal(b1-3)[Fuc(a1-4)]GlcNAc(b1-3)Gal(b1-4)GlcNAc
In short: as §1

[21] = molecular target: Gal(b1-3)[Fuc(a1-4)]GlcNAc(b1-3)Gal(b1-4)[Fuc(a1-3)]GlcNAc
In short: as §1

[22] = molecular target: Gal(b1-3)[GlcNAc(b1-6)]GalNAc
In short: as §1

B1: Ficolin B (Rattus norvegicus), P57756 (protein)
chain: MVLGSAALFVLSLCVTELTLHAADTCPEVKVLDLEGSNKLTILQGCPGLPGALGPKGEAGAKGDRGESGLPGHPGKAGPTGPKGDRGEKGVRGEKGDTGPSQSCATGPRTCKELLTRGYFLTGWYTIYLPDCRPLTVLCDMDTDGGGWTVFQRRIDGTVDFFRDWTSYKQGFGSQLGEFWLGNDNIHALTTQGTNELRVDLADFDGNHDFAKYSSFQIQGEAEKYKLILGNFLGGGAGDSLTSQNNMLFSTKDQDNDQGSSNCAVRYHGAWWYSDCHTSNLNGLYLRGLHKSYANGVNWKSWKGYNYSYKVSEMKVRLI
glycan array binding signal (z-score) (Gal(a1-2)Gal): -0.184 | glycan array binding signal (z-score) (Gal(a1-3)Gal): -0.202 | glycan array binding signal (z-score) (Gal(a1-3)Gal(b1-3)GlcNAc): 0.157 | glycan array binding signal (z-score) (Gal(a1-3)Gal(b1-4)Glc): 0.072 | glycan array binding signal (z-score) (Gal(a1-3)Gal(b1-4)GlcNAc): -0.206 | glycan array binding signal (z-score) [1]: -0.224 | glycan array binding signal (z-score) [2]: -0.13 | glycan array binding signal (z-score) (Gal(a1-3)GalNAc): -0.188 | glycan array binding signal (z-score) [3]: -0.187 | glycan array binding signal (z-score) (Gal(a1-4)Gal(b1-4)Glc): -0.24 | glycan array binding signal (z-score) (Gal(a1-4)Gal(b1-4)GlcNAc): 0.164 | glycan array binding signal (z-score) [4]: -0.169 | glycan array binding signal (z-score) (Gal(a1-4)GlcNAc): -0.202 | glycan array binding signal (z-score) (Gal(a1-6)Glc): -0.231 | glycan array binding signal (z-score) (Gal(b1-2)Gal): -0.123 | glycan array binding signal (z-score) (Gal(b1-3)Gal): -0.101 | glycan array binding signal (z-score) (Gal(b1-3)Gal(b1-4)GlcNAc): -0.18 | glycan array binding signal (z-score) [5]: -0.187 | glycan array binding signal (z-score) (Gal(b1-3)GalNAc): -0.164 | glycan array binding signal (z-score) [6]: -0.235 | glycan array binding signal (z-score) [7]: -0.215 | glycan array binding signal (z-score) [8]: -0.168 | glycan array binding signal (z-score) [9]: -0.207 | glycan array binding signal (z-score) [10]: -0.038 | glycan array binding signal (z-score) (Gal(b1-3)GlcNAc): -0.051 | glycan array binding signal (z-score) [11]: -0.194 | glycan array binding signal (z-score) [12]: -0.167 | glycan array binding signal (z-score) [13]: -0.118 | glycan array binding signal (z-score) [14]: -0.172 | glycan array binding signal (z-score) [15]: -0.224 | glycan array binding signal (z-score) [16]: -0.168 | glycan array binding signal (z-score) [17]: 0.238 | glycan array binding signal (z-score) [18]: 0.379 | glycan array binding signal (z-score) [19]: -0.084 | glycan array binding signal (z-score) [20]: -0.093 | glycan array binding signal (z-score) [21]: -0.222 | glycan array binding signal (z-score) [22]: -0.205
